From the BET-seq Pho4 binding data (Le et al. 2018)
This is one part of the list. Values were computed here from the reads of four pooled replicates and scatter widely.

These sequences were tested against T1, Pho4 (S. cerevisiae) (UniProt P07270) (assay: relative binding free energy (BET-seq); higher = weaker binding). Settings: reference: library average.
T1 sequence: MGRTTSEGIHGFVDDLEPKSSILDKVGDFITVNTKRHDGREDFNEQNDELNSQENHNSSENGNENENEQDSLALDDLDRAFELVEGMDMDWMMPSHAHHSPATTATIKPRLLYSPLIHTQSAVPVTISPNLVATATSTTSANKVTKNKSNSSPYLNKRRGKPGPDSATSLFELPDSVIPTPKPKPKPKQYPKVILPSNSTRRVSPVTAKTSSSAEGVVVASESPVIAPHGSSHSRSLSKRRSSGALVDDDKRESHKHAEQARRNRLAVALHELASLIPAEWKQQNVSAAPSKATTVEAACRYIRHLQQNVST

| Sequence | relative binding free energy [kcal/mol] |
| --- | --- |
| GAAATCACGTGGATTT | 0.26 |
| TTAGTCACGTGATCGT | 0.05 |
| TTCTTCACGTGGGTGG | 0.2 |
| GAGGGCACGTGTTGAT | -0.04 |
| ATATACACGTGGGTCA | -0.13 |
| CATGGCACGTGGATTG | 0 |
| GGGTGCACGTGGCTTA | 0.04 |
| GCTGTCACGTGGAGTT | 0.18 |
| TCTTTCACGTGGTCTA | 0.3 |
| TGGTGCACGTGTGTTC | 0.03 |
| ATGTACACGTGTATGA | 0.12 |
| AAATTCACGTGAAGGG | 0.33 |
| TTTGGCACGTGACTCT | 0.1 |
| AAGTGCACGTGAGAAG | 0.35 |
| GGGTTCACGTGTATGT | 0.31 |
| AAGATCACGTGGGATT | 0.02 |
| GTTACCACGTGTGGGT | 0.03 |
| GTTTGCACGTGCGGAA | 0.11 |
| TTTGACACGTGTATAT | -0.08 |
| TGTTTCACGTGGCATA | -0.02 |
| GTTAACACGTGTATAT | 0.11 |
| GGTAACACGTGCTTTG | 0.04 |
| TTGAGCACGTGAAGAA | 0.4 |
| CGGTGCACGTGGGGAC | -0.17 |
| ACTATCACGTGGGGTT | -0.01 |

| Sequence | relative binding free energy [kcal/mol] |
| --- | --- |
| TATATCACGTGTCAGT | 0.06 |
| TGTAACACGTGTTATA | -0.09 |
| GTCTGCACGTGGGATA | -0.07 |
| GAGGACACGTGGTTTG | 0.16 |
| AGACGCACGTGGAGGG | -0.13 |
| AATTGCACGTGGACTG | -0.02 |
| CTGGCCACGTGGTGTG | -0.21 |
| TTTTGCACGTGAGGTC | 0.23 |
| TTGGCCACGTGGAGTG | 0.04 |
| AGGGACACGTGTTGTA | 0.03 |
| GAGTGCACGTGATTTA | 0.09 |
| TTGACCACGTGTAGTT | 0 |
| TTTCTCACGTGATGGA | 0.22 |
| GTGTCCACGTGGTGTG | 0 |
| TACGTCACGTGGTGTT | 0.11 |
| GTCAGCACGTGGTGAG | -0.1 |
| AGTCTCACGTGTTCTT | 0.25 |
| TAGTGCACGTGTGGTC | 0.1 |
| TTAGGCACGTGGGCGG | -0.28 |
| TAGGACACGTGAGAAT | 0.41 |
| GAATTCACGTGAGCTT | 0.56 |
| GAGAGCACGTGGTCTG | -0.07 |
| TTACGCACGTGTAGGT | -0.15 |
| CTAGGCACGTGAGAGG | 0.06 |
| TTAGGCACGTGTGAGA | -0.07 |

| Sequence | relative binding free energy [kcal/mol] |
| --- | --- |
| TAGGTCACGTGCGTAA | -0.02 |
| GACGGCACGTGTGGAG | 0.09 |
| TGTGCCACGTGGTTAT | -0.15 |
| TGGGGCACGTGGTAAA | 0 |
| TCGGGCACGTGGCATT | -0.14 |
| TAGGGCACGTGGACTA | -0.02 |
| GAGCGCACGTGGGTAG | -0.22 |
| AGTGACACGTGCTGGT | -0.11 |
| GGAGTCACGTGGGAGA | 0.1 |
| GAAGGCACGTGCGGTG | -0.11 |
| GTATACACGTGAGTGT | 0.3 |
| AGAAGCACGTGTGATA | 0.31 |
| GTTGACACGTGCGAGT | -0.12 |
| AAAAGCACGTGGCGGT | -0.17 |
| AGAAGCACGTGTAATG | 0.01 |
| CGGAACACGTGAGGTG | 0.27 |
| TGGGGCACGTGAGAGA | 0.15 |
| TTGTCCACGTGAATTT | 0.29 |
| GGGTGCACGTGGCGTT | -0.01 |
| GTAATCACGTGATATG | 0.29 |
| AATCTCACGTGGTATG | 0.09 |
| TATGTCACGTGAAAAT | 0.3 |
| TATTGCACGTGCGGGT | -0.04 |
| TGGTTCACGTGCTCGT | 0.14 |
| GTAGTCACGTGGGGAG | 0.13 |

| Sequence | relative binding free energy [kcal/mol] |
| --- | --- |
| GGTACCACGTGTGGAT | 0.04 |
| TTTGTCACGTGTTAGT | 0.14 |
| TTGGGCACGTGTATGT | -0.01 |
| GTTGTCACGTGGTTTC | 0.06 |
| GGAGCCACGTGGCGTG | -0.14 |
| AAGGTCACGTGTTATT | 0.21 |
| TACCGCACGTGAGGGT | 0.16 |
| TGAAACACGTGTTGTA | -0.02 |
| CAAGTCACGTGTGTGA | 0.06 |
| TGTAGCACGTGTGGTA | -0.03 |
| ATTCGCACGTGTTGCT | 0 |
| TTTGGCACGTGTACAA | -0.03 |
| TTGGTCACGTGGGCCG | -0.08 |
| GTAGGCACGTGCTTTT | -0.03 |
| ATTACCACGTGGTCGG | -0.14 |
| TTGTCCACGTGTGTTG | 0.02 |
| TTTCGCACGTGGATGG | -0.01 |
| TATGCCACGTGGGCGT | -0.25 |
| GGATACACGTGAGTTA | 0.22 |
| GGTAGCACGTGTAATG | 0.08 |
| GTTTTCACGTGTGAGT | 0.4 |
| AGTTTCACGTGCTGGC | 0.24 |
| TGTAGCACGTGGTTGC | 0 |
| TGTTACACGTGGAACG | 0.23 |
| GTTTACACGTGGACAT | 0.29 |

| Sequence | relative binding free energy [kcal/mol] |
| --- | --- |
| GGTTGCACGTGGTCGA | -0.03 |
| TTTAGCACGTGTTGGC | -0.09 |
| TGGCTCACGTGGCATG | 0.19 |
| ATTTCCACGTGGGTTG | -0.12 |
| GGCGGCACGTGGGGCG | -0.19 |
| TATGGCACGTGAGGCC | 0.21 |
| GGTTACACGTGTCGAG | 0.17 |
| TTTTCCACGTGTTTGT | 0.07 |
| AAGGACACGTGTGTGG | -0.06 |
| TGGGGCACGTGTGCCA | -0.16 |
| TAGGCCACGTGGGGCT | -0.28 |
| GCTGGCACGTGGGTAT | -0.11 |
| TGCAGCACGTGGGTGA | -0.19 |
| TCTATCACGTGTAATT | 0.21 |
| TAGTGCACGTGATCAT | 0 |
| TGGGACACGTGGCTGG | -0.11 |
| TGAATCACGTGGCGGG | 0.07 |
| TTGATCACGTGAAGGA | 0.4 |
| ATTTACACGTGGGTAC | 0.07 |
| GGTGGCACGTGTTAAC | 0.03 |
| GTTGTCACGTGGTAGA | 0 |
| GATGGCACGTGAATGG | 0.34 |
| TTAAGCACGTGATGTG | -0.01 |
| GGGTGCACGTGACTGA | 0.16 |
| CAAATCACGTGTTTGG | 0.11 |

| Sequence | relative binding free energy [kcal/mol] |
| --- | --- |
| GTTAGCACGTGTCTTG | 0.07 |
| AGTCACACGTGAGGGG | 0.32 |
| GGTGTCACGTGGGTTT | 0.1 |
| CTAGGCACGTGGGGGA | -0.33 |
| CTTAGCACGTGGTTGT | -0.14 |
| GTCATCACGTGGTTTG | 0.16 |
| TGGGGCACGTGAAAGG | 0.16 |
| GAAAGCACGTGGGAGG | -0.19 |
| GTGGTCACGTGCGAGT | 0.11 |
| ACTAGCACGTGCTTGT | 0.02 |
| ATGCGCACGTGTGGAA | -0.02 |
| AAGTTCACGTGTATTC | 0.34 |
| TTTCACACGTGGATTT | 0.09 |
| GTTAACACGTGGGAAT | 0.12 |
| CGTTTCACGTGTTGTG | 0.25 |
| GCGGTCACGTGTGTCG | 0.35 |
| TACGGCACGTGGTAAG | -0.13 |
| TTTGGCACGTGATTTG | -0.09 |
| GTGGGCACGTGGGGGG | -0.18 |
| AGTGCCACGTGGTTTA | -0.04 |
| TGGGGCACGTGACAGC | -0.03 |
